Laboratory results from the RNAGym collection of RNA variant scans (doi:10.1073/pnas.2313332121).
This sample is rich in variants without activity.

B1: TPR 5TU (parent)
chain: GGAUCUUCUCGAUCUAACAAAAAAGACAAAUCUGCCACAAAGCUUGAGAGCAUCUUCGGAUGCAGAGGCGGCAGCCUUCGGUGGCGCGAUAGCGCCAACGUUCUCAACUAUGACACGCAAAACGCGUGCUCCGUUGAAUGGAGUUUAUCAUG

Variants of: B1
Assay: polymerase ribozyme fitness, log enrichment relative to wild type (log ratio); higher = more active; in vitro selection for triplet polymerase activity
How it was run: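 Both subunits of a heterodimeric triplet polymerase ribozyme were given their own mutant library, built by PCR and transcribed. Each library was annealed with a biotinylated primer, the partner subunit and triplets, incubated frozen at −7 °C, and its extended constructs gel-excised, captured on streptavidin beads and amplified by RT-PCR, all in one round done in triplicate. Fitness is the logarithm of genotype enrichment relative to wild-type enrichment, with replicates averaged by inverse-variance weighting. That logarithm is base 2, and Illumina-sequenced genotypes needed ≥10 input reads and ≥1 read per output.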

Variant	polymerase ribozyme fitness (log ratio)
G48C C54A U77G G84A G100U	≤ -4.2
G48C C54U A64U C76G A98G U146A	≤ -4.2
G48C C54U C85G U90A A138C	≤ -4.2
G48C C75U U90G G117A C129G	≤ -4.2
G48C C76A C93U U127C	≤ -4.2
G48C C79A G84C C87G G92A C108U G140A U145G	≤ -4.2
G48C C79A U102G G128U	≤ -4.2
G48C C79U G80C G100U U139C G152C	≤ -4.2
G48C C85A A142U	≤ -4.2
G48C C85U	-1.95
G48C C85U U102G U104A C118U C125A	-4.14
G48C C87G U111G	≤ -4.2
G48C C118U	-0.625
G48C G50C G62A A66G C87U A89G G133A	≤ -4.2
G48C G50U C96A G124U U135G	≤ -4.2
G48C G50U G59U U82A G92C	-3.41
G48C G50U U53A A91G C95U G117U	≤ -4.2
G48C G58A A91G	-3.21
G48C G58A C72U C93G A113G C131U U146A	≤ -4.2
G48C G58U C93G G140C	≤ -4.2
G48C G58U C96A U102A C114A	≤ -4.2

Variant	polymerase ribozyme fitness (log ratio)
G48C G59A C85U C129A	-4.08
G48C G59A U61A C85U G141A	≤ -4.2
G48C G59U C75U C105G U145C	≤ -4.2
G48C G62A G68A C93U U109A	≤ -4.2
G48C G68A G86C	≤ -4.2
G48C G74U C75A A122U G141A	≤ -4.2
G48C G80A C85U A120U A137G	≤ -4.2
G48C G84A C116G	≤ -4.2
G48C G94A	-0.224
G48C G126U	-0.372
G48C G141A	-3.64
G48C G143U	-2.25
G48C U53G	-3.59
G48C U55A C103G	-0.533
G48C U78A C96U U101G G128C	≤ -4.2
G48C U82G G128C U135A	-3.96
G48C U102G	-2.42
G48C U104G A138U	≤ -4.2
G48C U111A G140U	≤ -4.2
G48C U145G	-0.0374
G48U	0.247

Variant	polymerase ribozyme fitness (log ratio)
G48U A49C G68U G74A C76A G88U C116G	≤ -4.2
G48U A49C U61C U78G C108G A115C	≤ -4.2
G48U A52C C69A C85U U134G A150G	≤ -4.2
G48U A52C C99U	≤ -4.2
G48U A52G G67A U77C U102G	≤ -4.2
G48U A60C U90G G126A	≤ -4.2
G48U A73G	-1.15
G48U A91U G152U	≤ -4.2
G48U C54A C79G G83U G143A	≤ -4.2
G48U C54A U82G C93A A98G A106G C108G	≤ -4.2
G48U C57G C93U G136A U146G	-2.43
G48U C69A G83U C103G	≤ -4.2
G48U C69G C87A A91U C125U	≤ -4.2
G48U C75U C87U	≤ -4.2
G48U C85A A110U C118U	≤ -4.2
G48U C87G C118U G141U	≤ -4.2
G48U C93A A107G G126U U144G	≤ -4.2
G48U C93G	-3.47
G48U C93G G94U G140C	≤ -4.2
G48U C93U G100A A120U C131G	≤ -4.2
G48U C96A	-0.685

Variant	polymerase ribozyme fitness (log ratio)
G48U C103A U104G C132A	≤ -4.2
G48U G50A G94A A142U	≤ -4.2
G48U G50C C63G G80A C93G A147U G152A	≤ -4.2
G48U G50C U56A C85G	≤ -4.2
G48U G58A U104G C105U A115G	≤ -4.2
G48U G59A C93U	-1.39
G48U G62C C125G	≤ -4.2
G48U G83A C96U G128U G133U	≤ -4.2
G48U G83C G88A C93U U102A	≤ -4.2
G48U G84U	-2.01
G48U G86C G133U	≤ -4.2
G48U G86U C87U C132G A137C	≤ -4.2
G48U G100C U144A	≤ -4.2
G48U G126U	-0.307
G48U U56A C87G U90C	-4.07
G48U U56A G67A A73C G86U A107G	≤ -4.2
G48U U56A U78G C87A G128U	≤ -4.2
G48U U61G A97U A106U G126A C131U	≤ -4.2
G48U U134G	-2.34
A49C	-4.19
A49C A52C C69A C76U G92U C131G	≤ -4.2
